In the supplement of paper PMC11417369:
± gives the standard deviation of the averaged measurements. The list shows a part of the results.

These sequences were tested on PfAP2-G AP2 domain (GST-tagged) (assay: gcPBM binding intensity (ln(normalized median fluorescence intensity)); higher = stronger DNA binding).
Summary of the method: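 Binding of GST-tagged P. falciparum DNA-binding domains, expressed in E. coli and used at about 25 μg on average, was carried out for 1 h in 1× PBS containing 1% milk, 0.2 mg/ml BSA, 0.5% salmon testes DNA and 0.03% Triton X-100. The target was an Agilent 4 × 180k array of primer-extended double-stranded 36-bp intergenic genomic probes plus negative controls, read with Alexa488 anti-GST antibody at 488 nm. Binding intensity is the highest Masliner-normalised natural-log median intensity across replicate spots of either probe orientation.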

| Sequence | gcPBM binding intensity (ln) |
| --- | --- |
| ATTATAATTATTTTGTTGCACTATTTTTGTAGGCCA [GTGCAC_site9734] | 10.3 ± 0.16 |
| GAATACACCACGCACACACACTTGAGAAAAAATAAA [CACACA_site7747] | 10.6 ± 0.56 |
| GTGTACATAGGTATAGCACACACAAATGTAGGTATT [CACACA_site9339] | 11 ± 0.59 |
| CATGTAATATTAAACACACACTCATATAACACAATA [CACACA_site65] | 10.09 ± 0.057 |
| AAAGAAAAAAAAAACACACACACACGCATTCAATAT [CACACA_site6169] | 10.04 ± 0.042 |
| ATATATATTTATATATATATATATATATATATGTAT [GTGCAC_negctrl_site220] | 9.56 ± 0.2 |
| GTCCAATAAGGAAGAGTGCAAAAATTAAATAATATA [GTGCAC_site9751] | 10.3 ± 0.16 |
| TAGTTATTTATATACACACACATACAGACAAATAAA [CACACA_site7577] | 10.3 ± 0.26 |
| TCTTAGATTATTTATTGTACTTATGCTTAAAAAATT [XGTACX_site3639] | 11.3 ± 0.8 |
| ATATTTTCTTTTTAAAGTACATATTTGATTACAATA [XGTACX_site8414] | 11.1 ± 0.81 |
| GAAAAAAAAGAAAAAACACACATATGATATATTTAT [CACACA_site1524] | 9.55 ± 0.29 |
| ATATATATATATATATGTACATATTTTTAATTATAA [XGTACX_site7444] | 11.3 ± 0.79 |
| AAGAAAATGAAAAAGTAAAAACATATATTAAATATA [TGCATGCA_negctrl_site123] | 9.71 ± 0.15 |
| TCGTAGTTACTATGGCAAGAAAATAAACGGTCTTGT [GTGCAC_negctrl_site684] | 10.2 ± 0.23 |
| ATTATAAATTAAAATACACACATATATACATAATAT [CACACA_site7337] | 10.04 ± 0.064 |
| TCTTTTTGTTCGTGTACACACATGAAATTTATAAAA [CACACA_site1619] | 11.8 ± 1.1 |
| AAGTATATACATATATGTACACATTGTCAGATAGAA [XGTACX_site1236] | 11.4 ± 0.78 |
| ATAGAATAATATTGTAGTACTAAAAATATTCATTTT [XGTACX_site6447] | 11.4 ± 0.92 |
| TCTATATATAAATATAAATATATATATATAATGTTA [TGCATGCA_negctrl_site92] | 9.205 ± 0.092 |
| TAAAAAACAAAACAGGTGCTATATAATTTTCATTTT | 9.745 ± 0.078 |
| AAAGAAATAAGGTGCACACATATACAGATATATATA [CACACA_site4399] | 10.4 ± 0.47 |
| ATATATTTGATTTACACACTTACAATGTATATAAAT [CACACA_site2993] | 10.4 ± 0.26 |

| Sequence | gcPBM binding intensity (ln) |
| --- | --- |
| CTCTTTTTTTGCAAAAGTACAAATGGGGATATATTT [XGTACX_site5813] | 11.3 ± 0.71 |
| TTAAATAAAAAAATAACACACATATAAATATATATG [CACACA_site3175] | 9.87 ± 0.17 |
| TTACATATTTTTTAACGTACATAAATATATATGTAT [XGTACX_site8406] | 11.4 ± 0.79 |
| ACTCAAACCTTTAGAGTGCAAAAAAAAAAAAAAAAA [GTGCAC_site9952] | 9.89 ± 0.32 |
| TTGTAAAAATTAATACATATATATATATATATATAT [CACACA_negctrl_site6] | 9.9 ± 0.62 |
| ATATGTTAAATTATTCGTACGTAAAAAAAAATGGAT [XGTACX_site3465] | 11.3 ± 0.76 |
| ATAATTATCATAGGATGTACATATTTATTTTGTATA [XGTACX_site7797] | 11.2 ± 0.67 |
| TAATTTCATCATATTTGTTCCTTCTCAAAATTTTTT [CACACA_negctrl_site217] | 9.99 ± 0.099 |
| GCATTATTTACCACAACACACAAATATTTACCAATC [CACACA_site2669] | 10.5 ± 0.43 |
| ACTATATATTTAATATGTACACATATTTCTGTCGAT [XGTACX_site6878] | 11.5 ± 0.79 |
| TTCCTAAGAATAATCAGTACACATAAAAAGAACATA [XGTACX_site7861] | 11.4 ± 0.78 |
| TTTTATATTTTTTGTGGTACATTTAGAGAACCAAAA [XGTACX_site1695] | 11.4 ± 0.79 |
| TGTAAGTTGATATAATGTACATGTTTGATTTTTTTT [XGTACX_site7687] | 11.1 ± 0.58 |
| TATTCATTTATAAGCTGTACACATTAATTTGAGCTA [XGTACX_site3616] | 11.3 ± 0.87 |
| ATTAGGATATATTAAAGTACTAATATAATACATTTT [XGTACX_site7386] | 10.7 ± 0.42 |
| ATATAGTATTAATTTGCATGTCATGTATTAGGTCGA [TGCATGCA_site540] | 9.845 ± 0.021 |
| CTTTTTTTAATATGCACACATATATTTTATATATTA [CACACA_site2077] | 10.2 ± 0.11 |
| AAAAAGGGTATTATTACACACACGTAAATATTAATA [CACACA_site101] | 10.1 ± 0.18 |
| AGATTTATACAAATATGTACACACTAAATATATATT [XGTACX_site864] | 11.5 ± 0.74 |
| CAACAAAAATTATTTACACACAAAAGGCAAGGAAAT [CACACA_site1971] | 10.5 ± 0.28 |
| TAACTAAGGAATAATACACACAGAAATATAGATTTA [CACACA_site6293] | 9.93 ± 0.13 |
| TCTATTTTCTTATGAATGCACTAATTTATAAAACGT | 10.1 ± 0.13 |
